Reference: PubChem BioAssay AID881 (National Center for Advancing Translational Sciences (NCATS), 2007)
Several values for one entry are separate records, joined by “and”; a condition that tells them apart may be missing. Identical values can stand only once. Out of some 110,000 compounds screened, about 610 (0.55%) were called active. Inconclusive results, whose numbers are uncertain, are shown with a selection of clear calls. Calls come from the whole dose curve; as a rule, active = well fitted inhibition curve with a large enough effect; inconclusive = small, poorly fitted or top-dose-only effect; inactive = no such curve, though single readings can be large or run the other way. Potencies of inconclusive entries are doubtful fits and often do not repeat.

What follows are compounds tested against Polyunsaturated fatty acid lipoxygenase ALOX15B (Homo sapiens) (UniProt O15296) (assay: qHTS Assay for Inhibitors of 15-hLO-2 (15-human lipoxygenase 2)). Details: purified 15hLO-2, xylenol orange hydroperoxide absorbance; activity change, negative = inhibition: at 57.1 µM (top of the series) unless noted.
UniProt O15296, sequence (O15296 whole entry, looked up): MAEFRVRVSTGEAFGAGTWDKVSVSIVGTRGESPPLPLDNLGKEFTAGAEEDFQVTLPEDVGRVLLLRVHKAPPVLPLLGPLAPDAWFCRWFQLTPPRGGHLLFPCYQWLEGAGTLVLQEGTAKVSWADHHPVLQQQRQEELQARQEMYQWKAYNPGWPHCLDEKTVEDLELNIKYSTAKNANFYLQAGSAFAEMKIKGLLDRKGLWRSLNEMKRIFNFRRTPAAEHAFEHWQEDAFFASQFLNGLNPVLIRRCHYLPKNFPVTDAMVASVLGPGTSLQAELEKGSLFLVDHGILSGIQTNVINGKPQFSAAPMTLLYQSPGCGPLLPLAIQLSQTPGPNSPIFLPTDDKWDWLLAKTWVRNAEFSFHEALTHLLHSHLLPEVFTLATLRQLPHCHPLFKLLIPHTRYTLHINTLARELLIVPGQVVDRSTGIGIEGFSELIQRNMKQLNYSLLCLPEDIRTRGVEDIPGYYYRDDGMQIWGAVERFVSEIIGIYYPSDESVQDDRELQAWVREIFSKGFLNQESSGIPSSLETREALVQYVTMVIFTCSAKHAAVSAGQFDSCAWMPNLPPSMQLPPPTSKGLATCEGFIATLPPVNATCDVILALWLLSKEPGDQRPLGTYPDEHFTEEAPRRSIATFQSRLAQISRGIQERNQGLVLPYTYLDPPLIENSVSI
Outline: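 Enzyme 50 nM, AA 45 uM, 25 mM Hepes pH 7.5 + 0.01% Triton X-100; cpd preinc 15 min RT, rxn 90 min RT; stop/detect with 200 uM XO + 300 uM Fe(II) in 50 mM H2SO4, 30 min; A573/A405.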
% is set by controls: 0 for no effect and ±100 for the full control effect; potency is the fitted concentration of half-maximal effect; tags give direction and shape of the fitted curve.
Note: nearly all actives have a fitted effect of over 60% in size.

| Structure (SMILES) | Potency | activity change, negative = inhibition |
| --- | --- | --- |
| CC(C)COP(=O)(c1ccc(N(C)C)cc1)C(O)c1ccncc1 (stereo not given) | inactive |  |
| COc1ccc2c(c1OC)C(=O)N1N=C(c3ccc(O)cc3)CC21 (stereo not given) | inactive |  |
| CCCCNC(=O)CCn1c(=O)c2ccccc2n(CC(=O)Nc2ccccc2OCC)c1=O | inconclusive: 31.6 µM [inhibitor, single point] |  |
| COc1ccccc1CN1CCC2(CCNCC2)CC1 | inactive |  |
| COc1cc2c(cc1OC)C(c1ccc(-c3cc(Cl)ccc3Cl)o1)=NCC2 | inconclusive: 39.8 µM [inhibitor, single point] |  |
| CCOc1ccc2c(c1)C(C)=CC(C)(C)N2 | active: 10 µM and active: 12.6 µM |  |
| N#CCCN1CCN(C(=S)c2ccc(-c3cccc(Cl)c3)o2)CC1 | inconclusive: 25.1 µM [inhibitor, single point] |  |
| CC(=O)c1sc2nc(-c3cccs3)ccc2c1N | inconclusive: 6.31 µM [inhibitor, partial curve] |  |
| O=C(CC1Sc2ccccc2NC1=O)OC(C(=O)NCCc1ccccc1)c1cccnc1 (stereo not given) | inconclusive: 0.126 µM [inhibitor, full curve, poor fit] |  |
| C(=C1/CCCC2=C1Nc1ncnn1C2c1ccccc1)/c1ccccc1 (stereo not given) | inactive |  |
| Cn1c(-c2cc3c(C(F)(F)F)nn(C)c3s2)n[nH]c1=S | inconclusive: 25.1 µM [inhibitor, single point] |  |
| COc1cc(/C=N/N(C)c2ccccc2)ccc1O | inconclusive: 12.6 µM [inhibitor, partial curve] |  |
| N#C/C(C(N)=O)=c1/ccc2c(c1)N1C3=C(CCCC3)CC3CCCCC31N=2 (stereo not given) | inconclusive: 20 µM [inhibitor, partial curve] |  |
| Cc1cc(C)cc(OCc2nnc(SCC(=O)N3CCN(c4ccccc4)CC3)o2)c1 | inconclusive: 20 µM [inhibitor, partial curve] |  |
| Oc1cc2c(c(Cl)c1O)CCNC[C@H]2c1ccccc1 | inconclusive: 25.1 µM [inhibitor, single point] |  |
| CC(=O)Nc1ccc(S(=O)(=O)NNC(=O)COc2cccc(C)c2)cc1 | inconclusive: 10 µM [inhibitor, partial curve] |  |
| O=C(NC(=S)Nc1ccc2[nH]ncc2c1)c1ccccc1 | inconclusive: 25.1 µM [inhibitor, partial curve] |  |
| COc1ccc2[nH]cc(CCNc3cc(-c4ccoc4)ncn3)c2c1 | inactive |  |
| Cc1cc(C2CCCCC2)n(O)c(=O)c1 | inconclusive: 3.16 µM [inhibitor, partial curve] and inconclusive: 15.8 µM [inhibitor, partial curve] |  |
| Cc1csc(/C(=N\O)c2csc(C)n2)n1 | inactive |  |
| COc1ccc(OC)c(C2C3=C(N=C4SCC(=O)N42)c2ccccc2CC3)c1 (stereo not given) | inconclusive: 10 µM [inhibitor, partial curve] |  |
| COc1ccccc1N1CCN(S(=O)(=O)Cc2ccccc2Cl)CC1 | inactive |  |
| CCOc1ccc(-n2c(SCC(=O)Nc3ccc(OC)cc3)nc3c(c2=O)SCC3)cc1 | inconclusive: 0.316 µM [inhibitor, partial curve, poor fit] |  |
| COc1ccc(OCCCC(=O)NC(C)c2ccccc2)cc1 (stereo not given) | inactive |  |

| Structure (SMILES) | Potency | activity change, negative = inhibition |
| --- | --- | --- |
| O=C1CC(N2CCN(C/C=C/c3ccccc3)CC2)C(=O)N1CCc1ccccc1 (stereo not given) | inactive |  |
| COCC(C)NC(=O)c1ccc(-n2nc(C(F)(F)F)cc2-c2cccs2)cc1 (stereo not given) | inactive |  |
| Cc1cc(C)c(NC(=O)CSc2nc(COc3ccccc3)nc3ccccc23)c(C)c1 | inconclusive: 15.8 µM [inhibitor, partial curve] |  |
| N#CC1=C2SCC(O)(c3ccccc3)N2C(=O)CC1c1ccccc1 (stereo not given) | inactive |  |
| Cc1ccc(C(=O)c2ccccc2C(=O)O)s1 | inconclusive: 0.158 µM [inhibitor, full curve] |  |
| O=c1[nH]c2c(s1)C(c1ccco1)C1C3CCC(C3)C1S2 (stereo not given) | inconclusive: 25.1 µM [inhibitor, single point] |  |
| COC(=O)[C@@]1(Cc2ccc(OC)cc2)[C@H]2c3cc(C(=O)N4CCCC4)n(Cc4cc(C)n(C)n4)c3C[C@H]2CN1C(=O)c1ccccc1 | inactive |  |
| COC(=O)c1ccc2c(=O)n(CCCCCC(=O)NCc3ccccc3)c(=O)[nH]c2c1 | inconclusive: 12.6 µM [inhibitor, partial curve] |  |
| CCOC(=O)C1=C(C)N(c2ccc(C)cc2)C(=O)/C1=C\c1cccs1 | inconclusive: 20 µM [inhibitor, partial curve] |  |
| CCCCCCC(=O)N(O)C1CC(=O)N(c2ccc(Br)cc2)C1=O (stereo not given) | inconclusive: 2 µM [inhibitor, partial curve] |  |
| Cc1ccc(/C=N/n2c(-c3cccs3)n[nH]c2=S)cc1 | inconclusive: 5.01 µM [inhibitor, partial curve] |  |
| CCCCCC/C=C\CCCCCCCc1cccc(O)c1C(=O)O | inconclusive: 25.1 µM [inhibitor, single point] |  |
| CCc1ccccc1OCCOc1ccc(C)cc1OC | inconclusive: 0.251 µM [inhibitor, full curve, poor fit] |  |
| COC(=O)Oc1nsnc1N1CCOCC1 | inactive |  |
| O=C(Nc1cccs1)NC1CCCC1 | inconclusive: 12.6 µM [inhibitor, partial curve] |  |
| COCc1cc(=O)n2[nH]c(-c3cccc(Br)c3)cc2n1 | inconclusive: 39.8 µM [inhibitor, single point] |  |
| CCOC(=O)c1c(NC(=O)C(Sc2ccccc2)c2ccccc2)sc(C(N)=O)c1C (stereo not given) | inconclusive: 7.94 µM [inhibitor, full curve] |  |
| CCn1c(SCC(=O)N2c3ccccc3Sc3ccccc32)nnc1-c1ccco1 | inconclusive: 25.1 µM [inhibitor, partial curve] |  |
| O=C(CCN1C(=O)/C(=C/C=C/c2ccccc2)SC1=S)Nc1nccs1 | inconclusive: 20 µM [inhibitor, single point] |  |
| CC[C@H]1C2=C3C(CC[C@H]4C(OC)OC[C@](C)([C@@H]34)N(C(=O)OC(C)(C)C)C2)C(CO)C1CO (stereo not given in full) | inactive |  |
| CC1CCN(C(=O)c2ccc(COc3ccccc3Cl)o2)CC1 | inactive |  |
| CC1(C)S[C@H]2[C@@H](NC(=O)C(N)c3ccccc3)C(=O)N2[C@H]1C(=O)O (stereo not given in full) | inactive |  |
| COc1ccccc1CNC(=O)c1cccc(N(C)C)c1 | inconclusive: 20 µM [inhibitor, partial curve] |  |
| Cc1nn(Cc2ccccc2)c(C)c1NC(=O)CSc1nnc(-c2cc(Cl)ccc2O)n1C | inactive |  |

| Structure (SMILES) | Potency | activity change, negative = inhibition |
| --- | --- | --- |
| CCCCCC(O)(CCCCC)C(=O)NNc1ccccc1 | inconclusive: 3.16 µM [inhibitor, partial curve] |  |
| O=C(Nc1ccccc1-c1nc2ccccc2s1)c1cccnc1Cl | inconclusive: 10 µM [inhibitor, partial curve] |  |
| CCN(CC)S(=O)(=O)c1cccc(C(=O)N2CC(O)CC2C(=O)OC)c1 (stereo not given) | inactive |  |
| N#CC1=C2SCN(c3ccccc3)CN2C(=O)CC1c1cccs1 (stereo not given) | active: 12.6 µM |  |
| COc1cc(-c2ccc(N=Nc3ccc4c(S(=O)(=O)O)cc(S(=O)(=O)O)c(N)c4c3O)c(OC)c2)ccc1N=Nc1ccc2c(S(=O)(=O)O)cc(S(=O)(=O)O)c(N)c2c1O | active: 25.1 µM |  |
| CC(=O)N1CCN(c2ccc(NCc3cccs3)cc2)CC1 | active: 25.1 µM |  |
| COC(=O)[C@@]1(Cc2ccc(OC)cc2)[C@H]2c3cc(C(=O)N(C)C)n(Cc4ccc(O)c(OC)c4)c3C[C@H]2CN1C(=O)c1ccccc1 | inconclusive: 31.6 µM [inhibitor, single point] |  |
| O=C1/C(=C\c2ccc(Br)o2)SC(=Nc2ccccc2)N1c1ccccc1 | inconclusive: 31.6 µM [inhibitor, single point] |  |
| C[C@@H](N)/C(N)=N/O |  | inactive: 4.8% [at 11.4 µM] |
| c1coc(-c2ncc[nH]2)c1 | inactive |  |
| CCCCCCC(C)n1[nH]c(=O)c2c(C)cc(=O)[nH]c21 (stereo not given) | inactive |  |
| Cc1cccc(NC(=S)N/C(=N/S(=O)(=O)c2ccccc2)c2ccccc2)c1 | inconclusive: 39.8 µM [inhibitor, single point] |  |
| CS(=O)(=O)c1ccc(N2CCOCC2)c(S(C)(=O)=O)c1 | inactive |  |
| CCC1(c2cccc(Cl)c2)NC(=O)N(Cc2cc(C(=O)OC)c(C)o2)C1=O (stereo not given) | inconclusive: 39.8 µM [inhibitor, single point] |  |
| COC(=O)/C=C/c1cccc([C@H]2[C@@H]3C=CC[C@@H](C)[C@@H]3C(=O)N2Cc2ccccc2)c1 |  | inactive: 49.5% [at 0.0915 µM] |
| CC(C)C(=O)NC(=S)Nc1ccc(S(=O)(=O)N(C)Cc2ccccc2)cc1 | inconclusive: 31.6 µM [inhibitor, single point] |  |
| Cc1ccc(Nc2nc(CSc3nnnn3-c3ccccc3)cc(=O)[nH]2)cc1 | inconclusive: 31.6 µM [inhibitor, single point] |  |
| O=C(c1ccc2c(c1)[nH]c(=S)n1c3ccccc3nc21)N1CCN(c2ncccn2)CC1 | inconclusive: 20 µM [inhibitor, partial curve] |  |
| S=C(NCc1ccco1)Nc1cccc(Cl)c1 | inactive |  |
| CC(=O)Oc1cccc(N2C(=O)CC(Nc3ccc(N4CCOCC4)cc3)C2=O)c1 (stereo not given) | inconclusive: 15.8 µM [inhibitor, partial curve] |  |
| Cc1ccccc1-n1c(=O)/c(=C\c2ccco2)s/c1=C(/C#N)C(=O)Nc1ccccc1 | inconclusive: 12.6 µM [inhibitor, partial curve] |  |
| Cc1cc(N)c2ccccc2[n+]1CCCCCCCCCCCCCC[n+]1c(C)cc(N)c2ccccc21 | inconclusive: 31.6 µM [inhibitor, single point] |  |
